{
  "source": "PubChem BioAssay (NCATS)",
  "note": "The other results are listed elsewhere or left out. Shown are side measurements of this screen, not its main read-out; they come without a call. The list favours compounds with an active or inconclusive main result. The note in brackets gives the kind of curve behind each potency; many fits are weak. Tags tell the direction and shape of the fitted curve.",
  "data": [
    {"molecular_target": "Nicotinamide N-methyltransferase (Homo sapiens) (UniProt P40261)", "sequence (P40261 whole entry, looked up)": "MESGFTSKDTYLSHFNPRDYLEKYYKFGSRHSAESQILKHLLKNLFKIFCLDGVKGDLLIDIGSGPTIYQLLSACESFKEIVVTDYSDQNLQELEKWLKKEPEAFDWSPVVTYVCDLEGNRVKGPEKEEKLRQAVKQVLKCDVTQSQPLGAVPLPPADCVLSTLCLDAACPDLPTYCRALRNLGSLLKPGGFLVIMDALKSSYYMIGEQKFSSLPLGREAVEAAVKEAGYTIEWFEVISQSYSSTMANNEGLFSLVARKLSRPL", "experiment": "Confirmatory Screen for Target Class Profiling of Small Molecule Inhibitors of Methyltransferases (AID 1745852);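 also: inhibitor potency for blocking SAH production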", "settings": "MTase-Glo luminescence, SAH detection, recombinant enzyme; measured here: NNMT inhibition potency", "values": [
      {"compound": "C[C@H]1CN(C(=O)c2nn(C)c3ccccc23)C[C@@H]1c1nc(-c2cccnc2)no1", "IC50": "1.53 µM [falling, full curve]"},
      {"compound": "CC(C)C[C@H](C(=O)O)c1cc(-c2ccc(C(F)(F)F)cc2)cc(-c2ccc(C(F)(F)F)cc2)c1", "IC50": "30.4 µM [falling, single point]"},
      {"compound": "Cc1sc2c(c1C)C(c1ccc(Cl)cc1)=N[C@H](CC(=O)NCCCCNC(=O)COc1cccc3c1C(=O)N([C@H]1CCC(=O)NC1=O)C3=O)c1nnc(C)n1-2", "IC50": "19.2 µM [falling, partial curve]"},
      {"compound": "COc1ccc(CN2C(=O)c3cc4ccccc4n3CC2(C)C(=O)NCc2ccccc2)cc1OC", "note": "(stereo not drawn)", "IC50": "15.2 µM [falling, partial curve]"},
      {"compound": "COc1ccc(CCN2C(=O)c3cc4occc4n3CC2(C)C(=O)NC2CCCCC2)cc1OC", "note": "(stereo not drawn)", "IC50": "21.5 µM [falling, partial curve]"},
      {"compound": "Cc1nn(C(=O)CCC(=O)N2CCC(Cc3nncn3CC3CC3)CC2)c2ccccc12", "IC50": "21.5 µM [falling, partial curve]"},
      {"compound": "O=C(CCc1nnc2n(CCc3ccccc3)c(=O)c3ccccc3n12)N1CCN(c2ccccc2)CC1", "IC50": "9.61 µM [falling, partial curve]"},
      {"compound": "CN1CCN(C(=O)c2ccc(Nc3nccc(-c4cccs4)n3)cc2Cl)CC1", "IC50": "24.1 µM [falling, single point]"},
      {"compound": "CCCn1c(=O)c2ccccc2n2c(=O)n(CC(=O)c3cc(C)ccc3C)nc12", "IC50": "9.61 µM [falling, partial curve]"},
      {"compound": "O=c1[nH]ccc2nc(-c3ccc(CN4CCC(c5nc(-c6ccccn6)n[nH]5)CC4)cc3)c(-c3ccccc3)cc12", "IC50": "21.5 µM [falling, partial curve]"},
      {"compound": "CC(C)Cn1c(=O)c2ccccc2n2c(CCC(=O)N3CCN(c4cccc(Cl)c4)CC3)nnc12", "IC50": "6.81 µM [falling, full curve]"},
      {"compound": "CCc1ccc(NS(=O)(=O)c2ccc3c(c2)n(C)c(=O)n3C)cc1", "IC50": "19.2 µM [falling, partial curve]"},
      {"compound": "CC1(C(=O)NC2CCCCCC2)Cn2c(c(-n3cccc3)c3ccccc32)C(=O)N1CC1CCCO1", "note": "(stereo not drawn)", "IC50": "17.1 µM [falling, partial curve]"},
      {"compound": "C[C@]1(C2CCCC2)Cc2cc(OCC(=O)O)c(Cl)c(Cl)c2C1=O", "IC50": "21.5 µM [falling, partial curve]"},
      {"compound": "CN1CCN(c2ncnc3sc4c(c23)CCNC4)CC1", "IC50": "19.2 µM [falling, partial curve]"},
      {"compound": "CCCCCCCOc1cc2c(cc1/C(C)=C/c1ccc(C(=O)O)cc1)C(C)(C)CCS2(=O)=O", "IC50": "24.1 µM [falling, partial curve]"},
      {"compound": "O=C1CSc2ccccc2N1Cc1cccc(C(F)(F)F)c1", "IC50": "21.5 µM [falling, partial curve]"},
      {"compound": "c1ccc(CN2CCc3c(sc4ncnc(N5CCOCC5)c34)C2)cc1", "IC50": "27.1 µM [falling, partial curve]"},
      {"compound": "CC(C)Cn1c(=O)c2ccccc2n2c(CCC(=O)N3CCN(c4ccccc4F)CC3)nnc12", "IC50": "19.2 µM [falling, partial curve]"},
      {"compound": "CCCn1c(=O)c2ccccc2n2c(=O)n(CC(=O)c3cccc(Cl)c3)nc12", "IC50": "13.6 µM [falling, partial curve]"},
      {"compound": "CC(C)n1nc(-c2ccc(NC(=O)Nc3cccc(C(F)(F)F)c3)cc2)c2c(N)ncnc21", "IC50": "15.2 µM [falling, partial curve]"},
      {"compound": "Nc1nonc1-c1nc2cnccc2n1C1CCCCC1", "IC50": "21.5 µM [falling, partial curve]"},
      {"compound": "CCCCCc1ccc(/C=C/C(=O)Nc2cc(Cl)ccc2C(=O)O)cc1", "IC50": "27.1 µM [falling, partial curve]"},
      {"compound": "O=C(c1ccc(Cl)cc1)N1CCN(c2ccnc3cc(Cl)ccc23)CC1", "IC50": "27.1 µM [falling, single point]"},
      {"compound": "CC(C)Cn1c(=O)c2ccccc2n2c(CCC(=O)NCCc3ccc(Cl)cc3)nnc12", "IC50": "24.1 µM [falling, partial curve]"},
      {"compound": "Cn1ncc2c(N3CCN(S(N)(=O)=O)CC3)nc(C3CCCC3)nc21", "IC50": "27.1 µM [falling, partial curve]"},
      {"compound": "COc1ccccc1CNC(=O)C1(C)Cn2c(cc3ccccc32)C(=O)N1Cc1ccc(OC)c(OC)c1", "note": "(stereo not drawn)", "IC50": "7.64 µM [falling, full curve]"},
      {"compound": "COc1ccc(CN2C(=O)c3cc4sccc4n3CC2(C)C(=O)NC2CCC(C)CC2)cc1OC", "note": "(stereo not drawn)", "IC50": "3.41 µM [falling, full curve]"},
      {"compound": "O=C(c1ccc(C(F)(F)F)cc1)N1CCCC(C(=O)N2CCC(c3nc4ccncc4[nH]3)CC2)C1", "note": "(stereo not drawn)", "IC50": "24.1 µM [falling, partial curve, poor fit]"},
      {"compound": "CC1(C(=O)NC2CCCC2)Cn2c(c(-n3cccc3)c3ccccc32)C(=O)N1Cc1ccccn1", "note": "(stereo not drawn)", "IC50": "19.2 µM [falling, partial curve]"},
      {"compound": "N#Cc1ccc(N2N=C3c4ccc(C(=O)O)cc4CC[C@@H]3[C@@H]2C2CCCC2)cc1Cl", "IC50": "2.15 µM [falling, full curve]"},
      {"compound": "COc1cc2c(cc1OC)CN(C(=O)/C=C/c1c(-c3ccccc3)n(C)c3ncccc13)CC2", "IC50": "12.1 µM [falling, partial curve]"},
      {"compound": "Clc1ccc(Cn2c(Cc3ccccc3)nc3ccccc32)cc1", "IC50": "19.2 µM [falling, partial curve]"},
      {"compound": "Cc1ccc2c(c1)c(-n1cccc1)c1n2CC(C)(C(=O)NCCC(C)C)N(Cc2cccnc2)C1=O", "note": "(stereo not drawn)", "IC50": "19.2 µM [falling, partial curve]"},
      {"compound": "Cc1ccc(N(C)S(=O)(=O)c2ccc3c(c2)n(C)c(=O)n3C)cc1", "IC50": "21.5 µM [falling, partial curve]"},
      {"compound": "FC(F)(F)c1ccnc(N2CC[C@H](c3nnc(-c4ccncc4)o3)C2)n1", "IC50": "31.2 µM [falling, partial curve]"},
      {"compound": "COc1ccc(CCc2nc3c(C)c(-c4c(C)noc4C)c(C)cc3n2CCN2CCOCC2)cc1", "IC50": "34.1 µM [falling, partial curve, poor fit]"},
      {"compound": "CN(c1ccccc1CNc1nc(Nc2ccc3c(c2)CC(=O)N3)ncc1C(F)(F)F)S(C)(=O)=O", "IC50": "21.5 µM [falling, partial curve]"}
    ]}
  ]
}
